Molecular target: T1, human IL-6 (human, UniProt P05231 30-212)
T1 construct: also called purified recombinant human IL6 (Peprotech catalogue number 200-06)
Assay: SEC-HPLC of antibody incubated with equimolar human IL6; retention time of monomeric fraction 7.4 to 7.0 minutes
Source text: In this example, three purified antibodies against human IL6 were used, each with a molecular weight of approximately 200 kDa and therefore presumed to be of similar hydrodynamic size. The antibodies used were the monospecific bivalent antibody D-5H5L, the bispecific tetravalent antibody DVD-45 and the tetravalent bispecific antibody Mab4-5H5L. The hydrodynamic size of the antibodies was compared either alone or in complex with IL6, using SEC-HPLC. For immune complex formation the purified antibodies were incubated for two hours with purified recombinant human IL6 (Peprotech catalogue number 200-06), by dropwise adding IL6 stock solution to the purified antibody to a final equimolar concentration compared to the calculated concentration of unique antibody binding sites. Following incubation, antibodies with and without IL6 were analysed at room temperature using a TOSOH G3000 SWXL column of 7.8 mm×30 cm, a mobile phase of 10% v/v 10×PBS buffer (Gibco catalogue number 70011), 3% v/v ethanol and 87% water, with a flow rate of 1 ml/min and detection wavelength of 280 nm. The results are illustrated in FIG. 5.

B1: D-5H5L (antibody, human IgG1, kappa)
heavy: EVQLVESGGGLVQPGGSLRLSCAASGFTFSSYAMSWIRQAPGKGLEWIGQISGSGGSTYYNDNVLGRFTISRDNSKNTLYLQMNSLRAEDTAVYYCARDSGYFDIWGQGTLVTVSS[human IgG1 constant region left out here]GSASGGSEVQLVESGGGLVQPGGSLRLSCAASGFSLSNYYVTWVRQAPGKGLEWVGIIYGSDETAYATSAIGRFTISRDNSKNTLYLQMNSLRAEDTAVYYCARDDSSDWDAKFNLWGQGTLVTVSSGGGGSGGGGSGGGGSAIQMTQSPSSLSASVGDRVTITCQASQSINNELSWYQQKPGKAPKLLIYRASTLASGVPSRFSGSGSGTDFTLTISSLQPDDFATYYCQQGYSLRNIDNAFGGGTKVEIK
light: DTQMTQSPSSLSASVGDRVTITCRASQSISSYLAWYQQKPGKAPKLLIYAASSLYSGVPSRFSGSGSGTDFTLTISSLQPEDFATYYCQQYSSLPYTFGQGTKVEIKRTVAAPSVFIFPPSDEQLKSGTASVVCLLNNFYPREAKVQWKVDNALQSGNSQESVTEQDSKDSTYSLSSTLTLSKADYEKHKVYACEVTHQGLSSPVTKSFNRGEC
notes: Monospecific bivalent control: Mab5 scFv (VH-VL) fused to the C-terminus of CH3 of a Dummy human IgG1 with germline-like variable domains; also called Mab D-5H5L
- binding result: binds

— US20140255405A1 (published 2014)
